Laboratory results from a collection of fitness landscapes (doi:10.1126/science.1257360).
This is one part of the list.

B1: PhoQ; a variant is named by its letters at X, in order, P23837 (parent)
chain: MKKLLRLFFPLSLRVRFLLATAAVVLVLSLAYGMVALIGYSVSFDKTTFRLLRGESNLFYTLAKWENNKLHVELPENIDKQSPTMTLIYDENGQLLWAQRDVPWLMKMIQPDWLKSNGFHEIEADVNDTSLLLSGDHSIQQQLQEVREDDDDAEMTHSVAVNVYPATSRMPKLTIVVVDTIPVELKSSYMVWSWFIYVLSANLLLVIPLLWVAAWWSLRPIEALAKEVRELEEHNRELLNPATTRELTSLVRNLNRLLKSERERYDKYRTTLTDLTHSLKTPLXXLQXXLRSLRSEKMSVSDAEPVMLEQISRISQQIGYYLHRASMRGGTLLSRELHPVAPLLDNLTSALNKVYQRKGVNISLDISPEISFVGEQNDFVEVMGNVLDNACKYCLEFVEISARQTDEHLYIVVEDDGPGIPLSKREVIFDRGQRVDTLRPGQGVGLAVAREITEQYEGKIVAGESMLGGARMEVIFGRQHSAPKDE

Variants of: B1
Test: enrichment ratio after two sorts for PhoP signalling (ratio (wild type AVST 3.29)); higher = more functional
Conditions: with PhoP (E. coli)

| Variant | enrichment ratio |
| --- | --- |
| ANYG | ≤ 0.25 |
| ELNK | ≤ 0.25 |
| DWDM | ≤ 0.25 |
| NRPD | ≤ 0.25 |
| SLRD | ≤ 0.25 |
| CALS | ≤ 0.25 |
| VDIF | ≤ 0.25 |
| GAGI | ≤ 0.25 |
| VIHP | ≤ 0.25 |
| VEAD | ≤ 0.25 |
| RGFY | ≤ 0.25 |
| FEFF | ≤ 0.25 |
| FKIN | ≤ 0.25 |
| QIPG | ≤ 0.25 |
| HNLC | ≤ 0.25 |
| YTWC | ≤ 0.25 |
| DANI | ≤ 0.25 |
| RQGQ | ≤ 0.25 |
| IDRS | ≤ 0.25 |
| PKHC | ≤ 0.25 |
| ETGE | ≤ 0.25 |
| RFKN | ≤ 0.25 |
| RDWW | ≤ 0.25 |
| LNAD | ≤ 0.25 |
| RYNG | ≤ 0.25 |
| FLWH | ≤ 0.25 |

| Variant | enrichment ratio |
| --- | --- |
| NWHP | ≤ 0.25 |
| SPQD | ≤ 0.25 |
| IGYT | ≤ 0.25 |
| MGVL | 8.38 |
| THSC | 10.6 |
| ENSM | ≤ 0.25 |
| ERSV | ≤ 0.25 |
| SDYD | ≤ 0.25 |
| LKTG | ≤ 0.25 |
| TVLY | ≤ 0.25 |
| NQPL | ≤ 0.25 |
| SHLC | 3 |
| SVDG | ≤ 0.25 |
| HRWR | ≤ 0.25 |
| RFRS | ≤ 0.25 |
| TKSS | 7.82 |
| MHLW | ≤ 0.25 |
| DAEI | ≤ 0.25 |
| PCSE | ≤ 0.25 |
| TYKY | ≤ 0.25 |
| SSNR | ≤ 0.25 |
| MYCT | ≤ 0.25 |
| AQHV | ≤ 0.25 |
| LVIL | ≤ 0.25 |
| DFYV | ≤ 0.25 |
| ALSV | 8.37 |

| Variant | enrichment ratio |
| --- | --- |
| LKEI | ≤ 0.25 |
| IDLK | ≤ 0.25 |
| GCVV | ≤ 0.25 |
| RNCY | ≤ 0.25 |
| SHNI | 8.22 |
| EYPS | ≤ 0.25 |
| QFVL | ≤ 0.25 |
| FEFS | ≤ 0.25 |
| YTSI | ≤ 0.25 |
| LCAS | ≤ 0.25 |
| NGGQ | ≤ 0.25 |
| SMYY | ≤ 0.25 |
| RFGM | ≤ 0.25 |
| WQKR | ≤ 0.25 |
| WMKP | ≤ 0.25 |
| YCLT | 3.35 |
| HHQH | ≤ 0.25 |
| FAFR | ≤ 0.25 |
| KVHR | ≤ 0.25 |
| WISQ | ≤ 0.25 |
| WCLW | ≤ 0.25 |
| INKC | ≤ 0.25 |
| LVGW | ≤ 0.25 |
| DCGN | ≤ 0.25 |
| KLPH | ≤ 0.25 |
| WYYA | ≤ 0.25 |

| Variant | enrichment ratio |
| --- | --- |
| IKAL | ≤ 0.25 |
| SSCA | 9.17 |
| VCSH | ≤ 0.25 |
| YNKL | ≤ 0.25 |
| VGVL | ≤ 0.25 |
| FHLV | ≤ 0.25 |
| YRHG | ≤ 0.25 |
| CSRQ | ≤ 0.25 |
| NKSY | ≤ 0.25 |
| LHHA | ≤ 0.25 |
| SNYY | 0.504 |
| GMCC | ≤ 0.25 |
| EFTI | ≤ 0.25 |
| SASS | 9.93 |
| PEHY | ≤ 0.25 |
| EMNY | ≤ 0.25 |
| SQNS | 1.7 |
| MYNI | ≤ 0.25 |
| DQFR | ≤ 0.25 |
| WYPG | ≤ 0.25 |
| LCNC | ≤ 0.25 |
| IIIH | ≤ 0.25 |
| TSKT | ≤ 0.25 |
| WAQL | ≤ 0.25 |
| AMTF | 7.31 |
| TSYH | 5.77 |

| Variant | enrichment ratio |
| --- | --- |
| KFKY | ≤ 0.25 |
| RVID | ≤ 0.25 |
| ALII | ≤ 0.25 |
| GIYH | ≤ 0.25 |
| IWIL | ≤ 0.25 |
| NDMF | ≤ 0.25 |
| PKEQ | ≤ 0.25 |
| EHNR | ≤ 0.25 |
| IDQW | ≤ 0.25 |
| YYTH | ≤ 0.25 |
| SIKG | ≤ 0.25 |
| LVKV | ≤ 0.25 |
| HPKG | ≤ 0.25 |
| SHWY | ≤ 0.25 |
| DHDV | ≤ 0.25 |
| PSKD | ≤ 0.25 |
| YEFW | ≤ 0.25 |
| SYGV | ≤ 0.25 |
| SAKN | ≤ 0.25 |
| RAFD | ≤ 0.25 |
| RVSF | ≤ 0.25 |
| LYDT | ≤ 0.25 |
| RYQE | ≤ 0.25 |
| PSMN | ≤ 0.25 |
| QFPP | ≤ 0.25 |
| HDQH | ≤ 0.25 |

| Variant | enrichment ratio |
| --- | --- |
| LAYK | ≤ 0.25 |
| NGRQ | ≤ 0.25 |
| YENS | ≤ 0.25 |
| PPKI | ≤ 0.25 |
| GYNA | ≤ 0.25 |
| IASS | ≤ 0.25 |
| VSSE | ≤ 0.25 |
| KGPN | ≤ 0.25 |
| PTMH | ≤ 0.25 |
| HMGF | ≤ 0.25 |
| FSDQ | ≤ 0.25 |
| SHSV | ≤ 0.25 |
| WWDQ | ≤ 0.25 |
| NNQD | ≤ 0.25 |
| VSLR | ≤ 0.25 |
| YKRL | ≤ 0.25 |
| NHMH | ≤ 0.25 |
| PDHN | ≤ 0.25 |
| VQLA | ≤ 0.25 |
| HYPV | ≤ 0.25 |
| AGMG | ≤ 0.25 |
| YGNI | ≤ 0.25 |
| SLYF | ≤ 0.25 |
